# Laboratory results published in patent US5760092A, “Allocolchinones and uses thereof” (Brandeis University, priority 1996, dated 1998).
# Tests used:
# [1] = tested on: IGR-OV1 ovarian cancer cells
# [2] = tested on: MDA-N breast cancer cells
# [3] = tested on: HCC-2998 colon cancer cells; assay: cells; conditions: Homo sapiens
# [4] = tested on: MDA-MB-435 breast cancer cells
# [5] = tested on: PC-3 prostate cancer cells; assay: cells
# [6] = tested on: OVCAR-4 ovarian cancer cells; assay: cells; conditions: Homo sapiens
# [7] = tested on: SR leukemia cells
# [8] = tested on: UACC-62 melanoma cells; assay: cells; conditions: Homo sapiens
# [9] = tested on: NCI-H460 non-small cell lung cancer cells
# [10] = tested on: T-47D breast cancer cells
# [11] = tested on: UACC-257 melanoma cells; assay: cells; conditions: Homo sapiens
# [12] = tested on: K-562 leukemia cells; assay: cells; conditions: Homo sapiens
# [13] = tested on: DU-145 prostate cancer cells; assay: cells; conditions: Homo sapiens
# [14] = tested on: UO-31 renal cancer cells; assay: cells; conditions: Homo sapiens
# [15] = tested on: COLO 205 colon cancer cells; assay: cells; conditions: Homo sapiens
# [16] = tested on: SK-MEL-5 melanoma cells
# [17] = tested on: OVCAR-5 ovarian cancer cells; assay: cells; conditions: Homo sapiens
# [18] = tested on: EKVX non-small cell lung cancer cells
# [19] = tested on: HT29 colon cancer cells; assay: cells; conditions: Homo sapiens
# [20] = tested on: CCRF-CEM leukemia cells
# [21] = tested on: NCI-H23 non-small cell lung cancer cells; assay: cells; conditions: Homo sapiens
# [22] = tested on: UACC-62 melanoma cells
# [23] = tested on: EKVX non-small cell lung cancer cells; assay: cells; conditions: Homo sapiens
# [24] = tested on: SN12C renal cancer cells
# [25] = tested on: SW-620 colon cancer cells
# [26] = tested on: OVCAR-4 ovarian cancer cells
# [27] = tested on: HCC-2998 colon cancer cells
# [28] = tested on: K-562 leukemia cells
# [29] = tested on: MALME-3M melanoma cells
# [30] = tested on: M14 melanoma cells; assay: cells; conditions: Homo sapiens
# [31] = tested on: CCRF-CEM leukemia cells; assay: cells; conditions: Homo sapiens
# [32] = tested on: ACHN renal cancer cells; assay: cells; conditions: Homo sapiens
# [33] = tested on: 786-0 renal cancer cells
# [34] = tested on: NCI-H226 non-small cell lung cancer cells; assay: cells; conditions: Homo sapiens
# [35] = tested on: MCF7 breast cancer cells; assay: cells; conditions: Homo sapiens
# [36] = tested on: HCT-116 colon cancer cells; assay: cells; conditions: Homo sapiens
# [37] = read-out: Percent Growth, log10 conc -4.0
# [38] = read-out: Percent Growth, log10 conc -5.0
# [39] = read-out: Percent Growth, log10 conc -6.0
# [40] = read-out: Percent Growth, log10 conc -7.0
# [41] = read-out: Percent Growth, log10 conc -8.0
structure (smiles),measurement,setting,value
"COc1cc2c(c(OC)c1OC)-c1ccc(OC)c(=O)cc1[C@@H](NC(C)=O)CC2 [Colchicine, reference compound]",TGI,[1],> 100000 nM
same,TGI,[2],56200 nM
same,GI50,[3]; HCC 2998,30.7 nM
same,activity at 100 µM,"[3]; HCC 2998, read-out: Percent Growth, log10 conc -4.0",-14%
same,activity at 10 µM,"[3]; HCC 2998, read-out: Percent Growth, log10 conc -5.0",8%
same,activity at 1 µM,"[3]; HCC 2998, read-out: Percent Growth, log10 conc -6.0",11%
same,activity at 0.1 µM,"[3]; HCC 2998, read-out: Percent Growth, log10 conc -7.0",3%
same,activity at 0.01 µM,"[3]; HCC 2998, read-out: Percent Growth, log10 conc -8.0",95%
same,TGI,[4],31.5 nM
same,GI50,[5],23.8 nM
same,activity at 100 µM,[5]; [37],6%
same,activity at 10 µM,[5]; [38],8%
same,activity at 1 µM,[5]; [39],5%
same,activity at 0.1 µM,[5]; [40],16%
same,activity at 0.01 µM,[5]; [41],71%
same,GI50,[6]; OVCAR-4,93400 nM
same,activity at 100 µM,"[6]; OVCAR-4, read-out: Percent Growth, log10 conc -4.0",50%
same,activity at 10 µM,"[6]; OVCAR-4, read-out: Percent Growth, log10 conc -5.0",54%
same,activity at 1 µM,"[6]; OVCAR-4, read-out: Percent Growth, log10 conc -6.0",59%
same,activity at 0.1 µM,"[6]; OVCAR-4, read-out: Percent Growth, log10 conc -7.0",63%
same,activity at 0.01 µM,"[6]; OVCAR-4, read-out: Percent Growth, log10 conc -8.0",94%
same,TGI,[7],> 100000 nM
same,activity at 100 µM,"[8]; UACC-62, read-out: Percent Growth, log10 conc -4.0",-70%
same,activity at 10 µM,"[8]; UACC-62, read-out: Percent Growth, log10 conc -5.0",20%
same,activity at 1 µM,"[8]; UACC-62, read-out: Percent Growth, log10 conc -6.0",19%
same,activity at 0.1 µM,"[8]; UACC-62, read-out: Percent Growth, log10 conc -7.0",21%
same,activity at 0.01 µM,"[8]; UACC-62, read-out: Percent Growth, log10 conc -8.0",64%
same,TGI,[9],56.4 nM
same,TGI,[10],> 100000 nM
same,GI50,[11]; UACC-257,> 100000 nM
same,activity at 100 µM,"[11]; UACC-257, read-out: Percent Growth, log10 conc -4.0",65%
same,activity at 10 µM,"[11]; UACC-257, read-out: Percent Growth, log10 conc -5.0",61%
same,activity at 1 µM,"[11]; UACC-257, read-out: Percent Growth, log10 conc -6.0",81%
same,activity at 0.1 µM,"[11]; UACC-257, read-out: Percent Growth, log10 conc -7.0",76%
same,activity at 0.01 µM,"[11]; UACC-257, read-out: Percent Growth, log10 conc -8.0",79%
same,GI50,[12]; K562,16.2 nM
same,activity at 100 µM,"[12]; K562, read-out: Percent Growth, log10 conc -4.0",6%
same,activity at 10 µM,"[12]; K562, read-out: Percent Growth, log10 conc -5.0",11%
same,activity at 1 µM,"[12]; K562, read-out: Percent Growth, log10 conc -6.0",14%
same,activity at 0.1 µM,"[12]; K562, read-out: Percent Growth, log10 conc -7.0",16%
same,activity at 0.01 µM,"[12]; K562, read-out: Percent Growth, log10 conc -8.0",59%
same,GI50,[13]; DU-145,8370 nM
same,activity at 100 µM,"[13]; DU-145, read-out: Percent Growth, log10 conc -4.0",19%
same,activity at 10 µM,"[13]; DU-145, read-out: Percent Growth, log10 conc -5.0",49%
same,activity at 1 µM,"[13]; DU-145, read-out: Percent Growth, log10 conc -6.0",63%
same,activity at 0.1 µM,"[13]; DU-145, read-out: Percent Growth, log10 conc -7.0",64%
same,activity at 0.01 µM,"[13]; DU-145, read-out: Percent Growth, log10 conc -8.0",96%
same,GI50,[14]; UO-31,515 nM
same,activity at 100 µM,"[14]; UO-31, read-out: Percent Growth, log10 conc -4.0",12%
same,activity at 10 µM,"[14]; UO-31, read-out: Percent Growth, log10 conc -5.0",29%
same,activity at 1 µM,"[14]; UO-31, read-out: Percent Growth, log10 conc -6.0",32%
same,activity at 0.1 µM,"[14]; UO-31, read-out: Percent Growth, log10 conc -7.0",95%
same,activity at 0.01 µM,"[14]; UO-31, read-out: Percent Growth, log10 conc -8.0",94%
same,GI50,[15]; COLO 205,15 nM
same,activity at 100 µM,"[15]; COLO 205, read-out: Percent Growth, log10 conc -4.0",-81%
same,activity at 0.1 µM,"[15]; COLO 205, read-out: Percent Growth, log10 conc -7.0",23%
same,activity at 0.01 µM,"[15]; COLO 205, read-out: Percent Growth, log10 conc -8.0",56%
same,TGI,[16],88600 nM
same,GI50,[17]; OVCAR-5,76.3 nM
same,activity at 100 µM,"[17]; OVCAR-5, read-out: Percent Growth, log10 conc -4.0",-47%
same,activity at 10 µM,"[17]; OVCAR-5, read-out: Percent Growth, log10 conc -5.0",43%
same,activity at 1 µM,"[17]; OVCAR-5, read-out: Percent Growth, log10 conc -6.0",44%
same,activity at 0.1 µM,"[17]; OVCAR-5, read-out: Percent Growth, log10 conc -7.0",45%
same,activity at 0.01 µM,"[17]; OVCAR-5, read-out: Percent Growth, log10 conc -8.0",86%
same,TGI,[18],> 100000 nM
same,GI50,[19]; HT-29,28.2 nM
same,activity at 100 µM,"[19]; HT-29, read-out: Percent Growth, log10 conc -4.0",-13%
same,activity at 10 µM,"[19]; HT-29, read-out: Percent Growth, log10 conc -5.0",0%
same,activity at 1 µM,"[19]; HT-29, read-out: Percent Growth, log10 conc -6.0",-1%
same,activity at 0.1 µM,"[19]; HT-29, read-out: Percent Growth, log10 conc -7.0",0%
same,activity at 0.01 µM,"[19]; HT-29, read-out: Percent Growth, log10 conc -8.0",91%
same,TGI,[20],> 100000 nM
same,activity at 100 µM,"[21]; NCI-H23, read-out: Percent Growth, log10 conc -4.0",13%
same,activity at 10 µM,"[21]; NCI-H23, read-out: Percent Growth, log10 conc -5.0",2%
same,activity at 1 µM,"[21]; NCI-H23, read-out: Percent Growth, log10 conc -6.0",4%
same,activity at 0.1 µM,"[21]; NCI-H23, read-out: Percent Growth, log10 conc -7.0",3%
same,activity at 0.01 µM,"[21]; NCI-H23, read-out: Percent Growth, log10 conc -8.0",90%
same,TGI,[22],16600 nM
same,GI50,[23],> 100000 nM
same,activity at 100 µM,[23]; [37],75%
same,activity at 10 µM,[23]; [38],66%
same,activity at 1 µM,[23]; [39],74%
same,activity at 0.1 µM,[23]; [40],79%
same,TGI,[24],61900 nM
same,TGI,[25],22500 nM
same,TGI,[26],> 100000 nM
same,TGI,[27],22400 nM
same,TGI,[28],> 100000 nM
same,TGI,[29],38600 nM
same,GI50,[30]; M14,54.8 nM
same,activity at 100 µM,"[30]; M14, read-out: Percent Growth, log10 conc -4.0",-50%
same,activity at 10 µM,"[30]; M14, read-out: Percent Growth, log10 conc -5.0",41%
same,activity at 1 µM,"[30]; M14, read-out: Percent Growth, log10 conc -6.0",38%
same,activity at 0.1 µM,"[30]; M14, read-out: Percent Growth, log10 conc -7.0",42%
same,activity at 0.01 µM,"[30]; M14, read-out: Percent Growth, log10 conc -8.0",72%
same,GI50,[31],15 nM
same,activity at 100 µM,[31]; [37],4%
same,activity at 10 µM,[31]; [38],3%
same,activity at 1 µM,[31]; [39],2%
same,activity at 0.1 µM,[31]; [40],7%
same,activity at 0.01 µM,[31]; [41],59%
same,GI50,[32],369 nM
same,activity at 100 µM,[32]; [37],24%
same,activity at 10 µM,[32]; [38],41%
same,activity at 1 µM,[32]; [39],44%
same,activity at 0.1 µM,[32]; [40],58%
same,TGI,[33],> 100000 nM
same,GI50,[34]; NCI-H226,27.5 nM
same,activity at 100 µM,"[34]; NCI-H226, read-out: Percent Growth, log10 conc -4.0",-34%
same,activity at 10 µM,"[34]; NCI-H226, read-out: Percent Growth, log10 conc -5.0",7%
same,activity at 1 µM,"[34]; NCI-H226, read-out: Percent Growth, log10 conc -6.0",-7%
same,activity at 0.1 µM,"[34]; NCI-H226, read-out: Percent Growth, log10 conc -7.0",-3%
same,activity at 0.01 µM,"[34]; NCI-H226, read-out: Percent Growth, log10 conc -8.0",91%
same,GI50,[35]; MCF7,13 nM
same,activity at 100 µM,"[35]; MCF7, read-out: Percent Growth, log10 conc -4.0",8%
same,activity at 10 µM,"[35]; MCF7, read-out: Percent Growth, log10 conc -5.0",17%
same,activity at 1 µM,"[35]; MCF7, read-out: Percent Growth, log10 conc -6.0",18%
same,activity at 0.1 µM,"[35]; MCF7, read-out: Percent Growth, log10 conc -7.0",19%
same,activity at 0.01 µM,"[35]; MCF7, read-out: Percent Growth, log10 conc -8.0",54%
same,GI50,[36]; HCT-116,32.7 nM
same,activity at 10 µM,"[36]; HCT-116, read-out: Percent Growth, log10 conc -5.0",33%
same,activity at 1 µM,"[36]; HCT-116, read-out: Percent Growth, log10 conc -6.0",32%
same,activity at 0.1 µM,"[36]; HCT-116, read-out: Percent Growth, log10 conc -7.0",26%
same,activity at 0.01 µM,"[36]; HCT-116, read-out: Percent Growth, log10 conc -8.0",76%
